T1: IL-2Rα receptor with an avi tag and an His6 tag at the C-terminus (human, UniProt P01589 22-217, biotin on the avi tag (enzymatic labelling with BirA))
T1 construct: Biotin-labelled and loaded on the SA sensor in the ForteBio assays; also called CD25; IL-2Rα-His
T1 sequence: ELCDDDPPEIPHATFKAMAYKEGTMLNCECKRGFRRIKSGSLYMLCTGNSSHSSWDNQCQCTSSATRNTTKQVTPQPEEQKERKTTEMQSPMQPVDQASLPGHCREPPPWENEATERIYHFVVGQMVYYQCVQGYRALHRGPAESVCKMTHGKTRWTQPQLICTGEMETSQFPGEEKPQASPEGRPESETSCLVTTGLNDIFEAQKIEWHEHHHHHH

T2: IL-2Rβ receptor with an avi tag and an His6 tag at the C-terminus (human, UniProt P14784 27-240, biotin on the avi tag (enzymatic labelling with BirA))
T2 construct: Biotin-labelled and loaded on the SA sensor in the ForteBio assays; also called CD122; IL-2Rβ-His
T2 sequence: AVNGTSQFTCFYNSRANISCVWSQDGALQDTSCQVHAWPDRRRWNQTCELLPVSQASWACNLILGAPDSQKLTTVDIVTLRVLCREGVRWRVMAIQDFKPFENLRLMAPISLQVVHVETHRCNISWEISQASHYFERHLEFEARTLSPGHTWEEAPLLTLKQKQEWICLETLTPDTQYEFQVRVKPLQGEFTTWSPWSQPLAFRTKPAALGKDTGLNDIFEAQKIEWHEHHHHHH

B1: Y144 (IL-2^.Y30E1.15BCL.T3A-2*(G4S)-FcLALA) (Fc fusion)
chain: APASSSTKKTQLQLEHLLLDLQMILNGINNYKNPELEEMLTAKFYMPKKATELKHLQCLEEELKPLEEVLNLAGDASIHDLISNINVIVLELKGSETTFMCEYADETATIVEFLNRWITFSQSIISTLTGGGGSGGGGS[omitted - human IgG1 Fc with changes]
notes: Format 1 homodimer
B2: 2133 (Fc fusion)
chain: APASSSTKKTQLQLEHLLLDLQMILNGINNYKNPELEEMLTAKFYMPKKATELKHLQCLEEELKPLEEVLNLAGDASIHDLISQINVIVLELKGSETTFMCEYADETATIVEFLNRWITFSQSIISTLTGGGGSGGGGS[omitted - human IgG1 Fc with changes]
notes: Format 1 homodimer
B3: 2481 (Fc fusion)
chain: APASSSTKKTQLQLEHLLLDLQMILNGINNYKNPKLTRMLTFKFYMPKKATELKHLQCLEEELKPLEEVLNLAGDASIHDLISRINVIVLELKGSETTFMCEYADETATIVEFLNRWITFSQSIISTLTGGGGSGGGGS[omitted - human IgG1 Fc with changes]
notes: Format 1 homodimer
B4: 2107 (Fc fusion)
chain: APASSSTKKTQLQLEHLLLNLQMILNGINNYKNPELEEMLTAKFYMPKKATELKHLQCLEEELKPLEEVLNLAGDASIHDLISNINVIVLELKGSETTFMCEYADETATIVEFLNRWITFSQSIISTLTGGGGSGGGGS[omitted - human IgG1 Fc with changes]
notes: Format 1 homodimer
B5: 2478 (Fc fusion)
chain: APASSSTKKTQLQLEHLLLDLQMILNGINNYKNPKLTRMLTFKFYMPKKATELKHLQCLEEELKPLEEVLNLAGDASIHDLISDINVIVLELKGSETTFMCEYADETATIVEFLNRWITFSQSIISTLTGGGGSGGGGS[omitted - human IgG1 Fc with changes]
notes: Format 1 homodimer
B6: 2454 (Fc fusion)
chain: APASSSTKKTQLQLEHLLLNLQMILNGINNYKNPKLTRMLTFKFYMPKKATELKHLQCLEEELKPLEEVLNLAGDASIHDLISNINVIVLELKGSETTFMCEYADETATIVEFLNRWITFSQSIISTLTGGGGSGGGGS[omitted - human IgG1 Fc with changes]
notes: Format 1 homodimer
B7: 2132 (Fc fusion)
chain: APASSSTKKTQLQLEHLLLDLQMILNGINNYKNPELEEMLTAKFYMPKKATELKHLQCLEEELKPLEEVLNLAGDASIHDLISTINVIVLELKGSETTFMCEYADETATIVEFLNRWITFSQSIISTLTGGGGSGGGGS[omitted - human IgG1 Fc with changes]
notes: Format 1 homodimer
B8: Y30E1 IL-2^mutant-FC fusion protein (Fc fusion)
chain: APTSSSTKKTQLQLEHLLLDLQMILNGINNYKNPELEEMLTAKFYMPKKATELKHLQCLEEELKPLEEVLNLAQSKNFHLRPRDLISNINVIVLELKGSETTFMCEYADETATIVEFLNRWITFSQSIISTLTGGGGSGGGGS[omitted - human IgG1 Fc with changes]
notes: Format 1 homodimer; also called Mutant Y30E1
B9: Y040 (IL-2^.3X-2*(G4S)-FcLALA) (Fc fusion)
chain: APTSSSTKKTQLQLEHLLLDLQMILNGINNYKNPKLTDMLTFEFYMPKKATELKHLQCLERELKPLEEVLNLAQSKNFHLRPRDLISNINVIVLELKGSETTFMCEYADETATIVEFLNRWITFSQSIISTLTGGGGSGGGGS[omitted - human IgG1 Fc with changes]
notes: also called IL-2^3X-FC
B10: Y045 (IL-2^WT-2*(G4S)-FcLALA) (Fc fusion)
chain: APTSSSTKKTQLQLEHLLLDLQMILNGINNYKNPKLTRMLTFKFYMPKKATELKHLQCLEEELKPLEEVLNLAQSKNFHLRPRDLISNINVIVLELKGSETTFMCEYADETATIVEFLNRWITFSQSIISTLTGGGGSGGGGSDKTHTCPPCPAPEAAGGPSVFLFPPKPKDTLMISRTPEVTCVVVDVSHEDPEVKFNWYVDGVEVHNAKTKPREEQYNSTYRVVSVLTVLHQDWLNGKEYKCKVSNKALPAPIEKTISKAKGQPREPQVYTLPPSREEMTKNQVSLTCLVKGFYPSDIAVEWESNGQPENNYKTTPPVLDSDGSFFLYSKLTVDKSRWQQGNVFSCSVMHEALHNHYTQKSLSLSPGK
notes: Format 1 homodimer; also called IL-2^WT-FC; wild-type (Y045)
B11: 2262 (Fc fusion)
chain: APASSSTKKTQLQLENLLLDLQMILNGINNYKNPELEEMLTFKFYMPKKATELKHLQCLEEELKPLEEVLNLAQSKNFHLRPRDLISNINVIVLELKGSETTFMCEYADETATIVEFLNRWITFSQSIISTLTGGGGSGGGGS[omitted - human IgG1 Fc with changes]
notes: Format 1 homodimer
B12: 2258 (Fc fusion)
chain: APASSSTKKTQLQLEHLLLDLQMILNGINNYKNPELEEMLTFKFYMPKKATELKHLQCLEEELKPLEEVLNLAQSKNFHLRPRNLISNINVIVLELKGSETTFMCEYADETATIVEFLNRWITFSQSIISTLTGGGGSGGGGS[omitted - human IgG1 Fc with changes]
notes: Format 1 homodimer
B13: 2263 (Fc fusion)
chain: APASSSTKKTQLQLENLLLDLQMILNGINNYKNPELEEMLTFKFYMPKKATELKHLQCLEEELKPLEEVLNLAQSKNFHLRPRNLISNINVIVLELKGSETTFMCEYADETATIVEFLNRWITFSQSIISTLTGGGGSGGGGS[omitted - human IgG1 Fc with changes]
notes: Format 1 homodimer
B14: 2257 (Fc fusion)
chain: APASSSTKKTQLQLEHLLLDLQMILNGINNYKNPELEEMLTFKFYMPKKATELKHLQCLEEELKPLEEVLNLAQSKNFHLRPRDLISNINVIVLELKGSETTFMCEYADETATIVEFLNRWITFSQSIISTLTGGGGSGGGGS[omitted - human IgG1 Fc with changes]
notes: Format 1 homodimer
B15: 2172 (Fc fusion)
chain: APASSSTKKTQLQLEHLLLDLQMILNGINNYKNPELEEMLTAKFYMPKKATELKHLQCLEEELKPLEEVLNLAQSKNFHDLISNINVIVLELKGSETTFMCEYADETATIVEFLNRWITFSQSIISTLTGGGGSGGGGS[omitted - human IgG1 Fc with changes]
notes: Format 1 homodimer
B16: 2167 (Fc fusion)
chain: APASSSTKKTQLQLEHLLLDLQMILNGINNYKNPELEEMLTAKFYMPKKATELKHLQCLEEELKPLEEVLNLAGDASIHNLISNINIIVLELKGSETTFMCEYADETATIVEFLNRWITFSQSIISTLTGGGGSGGGGS[omitted - human IgG1 Fc with changes]
notes: Format 1 homodimer

Molecular target: T1, IL-2Rα receptor with an avi tag and an …
Assay: BLI (ForteBio); biotinylated receptor on SA sensor, 100 nM IL-2-Fc in solution

Row | binding result | Binder
1 | no binding (tested: 100 nM) | B1

Molecular target: T2, IL-2Rβ receptor with an avi tag and an …
Assay: as above

Row | binding result | Binder
2 | no binding (tested: 100 nM) | B2
3 | no binding (tested: 100 nM) | B3
4 | no binding (tested: 100 nM) | B4
5 | no binding (tested: 100 nM) | B5
6 | no binding (tested: 100 nM) | B6
7 | no binding (tested: 100 nM) | B7

Molecular target: T1, IL-2Rα receptor with an avi tag and an …
Assay: as above
Remark: another data set of the same source
Experimental: (§1) The ForteBio affinity assay was conducted according to the method (Estep, P et al., High throughput solution Based measurement of antibody-antigen affinity and epitope binding. mAbs, 2013.5(2): p. 270-8) known in the art. […] The kinetic analysis was performed using a 1:1 binding model.

Row | binding result | Binder
8 | no binding (tested: 100 nM) | B8
9 | no binding (tested: 100 nM) | B9

Molecular target: T1, IL-2Rα receptor with an avi tag and an …
Assay: BLI (ForteBio); biotinylated receptor on SA sensor, 100 nM IL-2 mutant molecule in solution, 1:1 model
Experimental: (§2) The equilibrium dissociation constants (KD) for binding of the IL-2 mutants described above in the present invention to their receptors were measured by biological optical interferometry (ForteBio).
as §1
(§3) The expression yields and purity of the IL-2 mutants were improved relative to the wild-type (Y045), and meanwhile, the introduction of the IL-2Rβγ binding interface amino acid mutations led to different levels of reductions in the affinity for IL-2Rβ and IL-2Rβγ.

Row | Kd [nM] | Binder
10 | 1.05 | B10

Molecular target: T2, IL-2Rβ receptor with an avi tag and an …
Assay: as above
Experimental: as §2, §1, §3

Row | Kd [nM] | Binder
11 | 10.5 | B11
12 | 1.39 | B12
13 | 27.7 | B13
14 | 0.714 | B14
15 | 2.95 | B1
16 | 2.78 | B15
17 | 28.5 | B16

Molecular target: T3, IL-2 receptor βγ complex (IL-2Rβ-Fc.Knob / IL-2Rγ-Fc.Hole heterodimer) (human, complex was biotin-labelled enzymatically (BirA); site not stated)
T3 construct: Knobs-in-holes Fc heterodimer co-expressed in Expi293 cells; also called IL-2Rβγ; IL-2 receptor βγ protein
Assay: as above
Experimental: as §2, §1, §3

Row | Kd [nM] | Binder
18 | 0.0867 | B1
19 | 0.287 | B16
20 | 7.68 | B2
21 | 2.63 | B4
22 | 1.99 | B7

Molecular target: T1, IL-2Rα receptor with an avi tag and an …
Assay: BLI (ForteBio); biotinylated receptor on SA sensor, 100 nM IL-2-Fc in solution, 1:1 model
Experimental: as §1

Row | Kd [nM] | Binder
23 | 10 | B10

Molecular target: T2, IL-2Rβ receptor with an avi tag and an …
Assay: as above
Experimental: as §1

Row | Kd [nM] | Binder
24 | 5.9 | B8

From patent US20230145766A1 (Innovent, published 2023)
